From the supplement of paper PMC11417369
Some of the results follow.

System: PfAP2-HC AP2 domain (GST-tagged)
Test: gcPBM binding intensity (ln(normalized median fluorescence intensity)); higher = stronger DNA binding
How it was run: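 Plasmodium falciparum DNA-binding domains carrying a GST tag were expressed in E. coli and applied for 1 h, at about 25 μg on average, to an Agilent 4 × 180k array. The array held primer-extended double-stranded 36-bp intergenic genomic probes together with negative controls, and binding took place in 1× PBS with 1% milk, 0.2 mg/ml BSA, 0.5% salmon testes DNA and 0.03% Triton X-100. An Alexa488 anti-GST antibody detected bound protein, and the array was scanned at 488 nm. Binding intensity is taken as the highest Masliner-normalised natural-log median intensity across replicate spots of either probe orientation.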

Point of comparison: “CATCTTAAATAAGAACGTACATTTTTTTTGATGAGA [XGTACX_site3462]”, “gcPBM binding intensity (ln)” value 9.41. Against it:
- TTTTATTATAATAATTGTACAAAAATTATTTAATAT [XGTACX_site6054] — lower, 9.37
- TTAATTTATTATCTTTGTACACAATTAAAAAAAAAA [XGTACX_site3469] — lower, 9.29
- ATAAATATACATTATACCGACCATGTGGATATTATA [XGTACX_negctrl_site241] — higher, 9.62
- TTATTTTTATATTTTAATTTTAAAAAAATTTTAATT [CACACA_negctrl_site777] — lower, 9.3
- ATTATACATATTATATGTACATATATAAATAAATAA [XGTACX_site7076] — higher, 9.71
- TTTTGGTTTTGTTCTACACACATAAAAAAAAAAAAG [CACACA_site2276] — higher, 9.45
- ATATATCAATATGGAATATATATATATATATATATA [TGCATGCA_negctrl_site502] — lower, 9.4
- TTTCTATTTATTAATACATGCAAAATAAAGTAAAGT [TGCATGCA_site209] — higher, 9.64
- TATATATATATATATATATTTATGTATTTATTTAAT [TGCATGCA_negctrl_site179] — lower, 9.38
- ATATATATAAATAAATGTACATAAATAATATATTAT [XGTACX_site5419] — higher, 9.8
- TATTGTATATAATAAACACACAATATTAAAAATATA [CACACA_site1057] — higher, 9.75
- TATTTAAAAAACACATGTACGAGTATTATATATAAA [XGTACX_site6654] — higher, 9.55
- AGTATATTAAAAAATACACACGTATTATATCTACAT [CACACA_site8844] — higher, 9.92
- GTTCATAAATTAAACACACACACACCGCTGGATACC [CACACA_site5779] — higher, 10.3
- TAATATACTTAATACACACACGAATATTTATAAATA [CACACA_site6675] — higher, 9.94
- GATTCATCTAAACACCGTACATATTATATATATATA [XGTACX_site6030] — higher, 9.65
- CCCCTCGAAATAATTTGTACGAATATATTGTCTGTA [XGTACX_site8308] — higher, 9.68
- AAACTCAACTTATATACACACAATCTTTTTTTTTTA [CACACA_site29] — higher, 9.81
- ATTGGAAAATATGTTATATATATATATATATATATG [CACACA_negctrl_site116] — higher, 9.52
- TTAATTCGTACATACACACGCACATATATATATATA [CACACA_site1469] — higher, 10.2
- AATAATAATAGAAACACACACACATCTTTAATAATA [CACACA_site4805] — higher, 10.5
- ATATTTTTTTTCTACACACATACAAATATATATTAT [CACACA_site2359] — higher, 10
- ATATTAAAATACAGTGCATGTTAAAAATATATTATA [TGCATGCA_site977] — higher, 9.7
- TTATAACATCTTAAATGTACAAATATGTGCTTATTT [XGTACX_site7285] — higher, 9.71
- ATGTATTTATATACTTGTACGTAAGATGTATTATAT [XGTACX_site908] — higher, 9.8
- TAAAAAAAAAACATCTGTACCAATTTTTATGTATAA [XGTACX_site5196] — higher, 9.49
- AATAAAAGTTCACCTGTACACACATATATATATGTA [CACACA_site8500] — higher, 9.91
- GGTTATAACGCACATGCACACGTAAATAAATATTAT [CACACA_site9277] — higher, 9.81
- TAAATTTTAATAAATACACACAAATTTTAATTCTAT [CACACA_site6039] — higher, 9.59
- ACATGCAACCATTCGGGTACAGAAATAAATATATAC [XGTACX_site4174] — higher, 9.66
- CTTTTTCGCATGAAAAGTACATGAAATATATTACAT [XGTACX_site8971] — lower, 9.37
- AATAACTTTTTAAACACACACACATATAAATAAATA [CACACA_site6196] — higher, 10.4
- GGAGACTTTGTACAAACACACACATGAACACAATAT [CACACA_site8376] — higher, 10
- TAATTTAAAAATGAACATATATATGTATGTAAATAT [TGCATGCA_negctrl_site135] — higher, 9.8
- ATGTATATATTTATGTGTACTTAAATTTTTTTTTGT [XGTACX_site8179] — higher, 9.67
- TTTTAATATATAGAGTAACAAATTTGTCTATTAATA [CACACA_negctrl_site1495] — higher, 9.51
- TCTTCACCACGTGGAAGTACATAAAAAGATACACAA [XGTACX_site4747] — higher, 9.55
- AAGACAAAACAAAGAAGTACATATATATATATATAT [XGTACX_site4067] — higher, 9.74
- AATAATATTAACACACGTACAAAAGCAAACAACCAA [XGTACX_site7410] — higher, 10.6
- ATACATTCTAATACGTGTACATATATATATATATAT [XGTACX_site1881] — higher, 9.76
- TTTATATTATTATATCTTATTAATTATTTATCATTT [TGCATGCA_negctrl_site73] — higher, 9.74
- TGATGCAAAATATATACACACATATATATATATATA [CACACA_site3052] — higher, 9.69
- CATATACATTGTATATGTACATATATATATATATAT [XGTACX_site3772] — higher, 9.8
- GATTATATATTAAAAAGTACTTTATAAATACTTCTA [XGTACX_site8992] — lower, 9.39
- CAAAGCATAGTATGATGTACAAATGTTCCTATAATA [XGTACX_site8642] — higher, 9.76
- TCTTATTATAAAAGGAGTACATCAATTAGATGTTCC [XGTACX_site8465] — lower, 9.32
- ATATATATATAATATTGTACATAGTAGACATCACAC [XGTACX_site4649] — higher, 9.94
- TATATATGTATAAGAGTGCATATGCATATATGTATA [GTGCAC_site9692] — higher, 9.83
- TAAAATATGGAAATCACACATTTATTAAAATATATA [CACACA_site4623] — higher, 9.55
- TTATGTTTATACACTACACACATTATTCATAAAAAA [CACACA_site4637] — higher, 9.74
- TATGGGTTTATATAGGTGCAATATATGTATATATAA — higher, 9.56
- TATACCACCCGATATACACACTTGTAGACATCTTTT [CACACA_site4268] — higher, 9.78
- ACAAAACTCTTTAATTGTACAAATATAATATAAAAA [XGTACX_site5690] — higher, 9.6
- TATATAGTTTATATTTGTACATATAGACATTTATAA [XGTACX_site6414] — higher, 9.49
- AACCATTGGGAAAGGGTGCACATATATATATATATA — higher, 9.74
- AGCAATATTTATTAAAGTACGTAAAAAAAATTCTCA [XGTACX_site6550] — higher, 9.62
